In all, about 310,000 compounds went through this assay and about 14,000 (4.5%) showed an effect of 50% or more. The effect is printed as a negative number. The list shows a part of the results.
molecular target: human ether-à-go-go-related gene (hERG) potassium channel (human, UniProt Q12809); test: primary screen, population patch clamp on CHO cells stably expressing hERG
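Note: peak tail current of the secondary pulse compared with the same well before compound.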

Sequence of human ether-à-go-go-related gene (hERG) potassium channel (Q12809 whole entry, looked up): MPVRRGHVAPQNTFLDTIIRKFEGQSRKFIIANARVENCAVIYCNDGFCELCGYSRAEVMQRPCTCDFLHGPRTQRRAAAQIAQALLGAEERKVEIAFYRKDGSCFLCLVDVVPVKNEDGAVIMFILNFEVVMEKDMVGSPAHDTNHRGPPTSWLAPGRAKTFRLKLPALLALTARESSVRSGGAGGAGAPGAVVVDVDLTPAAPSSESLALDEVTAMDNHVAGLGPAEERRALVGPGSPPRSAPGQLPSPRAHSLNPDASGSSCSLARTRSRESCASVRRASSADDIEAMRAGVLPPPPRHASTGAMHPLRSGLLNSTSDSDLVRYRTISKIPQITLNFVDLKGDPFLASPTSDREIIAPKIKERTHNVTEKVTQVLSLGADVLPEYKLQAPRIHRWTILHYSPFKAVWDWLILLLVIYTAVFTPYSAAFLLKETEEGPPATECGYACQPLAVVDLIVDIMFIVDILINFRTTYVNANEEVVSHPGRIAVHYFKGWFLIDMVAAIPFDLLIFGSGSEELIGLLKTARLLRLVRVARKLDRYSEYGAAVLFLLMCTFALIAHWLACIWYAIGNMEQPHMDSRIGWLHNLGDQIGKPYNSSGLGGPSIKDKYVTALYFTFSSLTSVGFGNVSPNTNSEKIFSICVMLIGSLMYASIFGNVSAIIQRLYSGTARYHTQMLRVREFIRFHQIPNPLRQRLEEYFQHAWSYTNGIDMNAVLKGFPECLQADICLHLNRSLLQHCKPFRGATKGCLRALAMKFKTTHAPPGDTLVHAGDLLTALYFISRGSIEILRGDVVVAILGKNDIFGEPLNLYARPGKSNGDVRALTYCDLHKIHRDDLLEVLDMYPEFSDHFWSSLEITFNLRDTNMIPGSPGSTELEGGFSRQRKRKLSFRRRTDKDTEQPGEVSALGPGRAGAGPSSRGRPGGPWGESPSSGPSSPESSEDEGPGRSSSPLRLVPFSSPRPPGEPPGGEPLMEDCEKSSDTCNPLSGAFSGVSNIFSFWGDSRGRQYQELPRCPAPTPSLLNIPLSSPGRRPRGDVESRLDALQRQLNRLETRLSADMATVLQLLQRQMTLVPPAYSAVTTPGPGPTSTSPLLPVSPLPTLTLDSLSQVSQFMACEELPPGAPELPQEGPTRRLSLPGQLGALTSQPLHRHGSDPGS

Row | Compound | hERG current change (%, negative = inhibition) at 10uM [%]
1 | O=C(NNc1c(Cl)cc(Cl)cc1Cl)C1CCC1 | -1.9
2 | COCc1[nH]nc2c1C(c1c(F)cccc1Cl)C(C#N)=C(N)O2 (centres unmarked) | -3.01
3 | CCOC(=O)c1ccc(N2C(=O)CC(N3CCN(C(=O)c4ccco4)CC3)C2=O)cc1 (centres unmarked) | -25.8
4 | COC(=O)CN1C(=S)N(c2ccc(OC)cc2)C(=O)/C1=C/c1cccs1 | 34
5 | CCOc1cc([N+](=O)[O-])cc(/C=N/NC(=O)c2c(-c3ccccc3)noc2C)c1O | -3.58
6 | CCCN(CC1CC1)C(=S)NC(=O)c1ccc(S(=O)(=O)N2CCOCC2)cc1 | 2.32
7 | CCOc1ccc(C(=O)NCC(=O)OCc2cc(C(C)=O)ccc2OC)cc1 | -14.5
8 | O=C(Nc1ccc(O)cc1)c1ccc(C(=O)c2ccccc2)o1 | 2.26
9 | CCOc1ccc(CNC(=O)CCC(=O)N2Cc3cccc(OC)c3Oc3ncccc32)cc1 | -44.3
10 | COc1ccccc1CN(C)C(=O)c1cccc(S(=O)(=O)N2CCCc3ccccc32)c1 | -18.8
11 | CCN(CC)C(=S)NCCc1ccccc1 | 0.124
12 | CCn1c(=O)cc(OCC(=O)NCCCN2CCCC2=O)c2ccccc21 | 8.52
13 | CCCN1CCN(CCCNC(=O)CCNC(=O)Cn2ccc3ccccc3c2=O)CC1 | 17.6
14 | COc1ccc2cc(C=O)n(C)c2c1 | 5.05
15 | O=C(N/C=C/c1ccco1)Nc1cccc(Cl)c1 | 2.75
16 | CC(=O)Nc1ccc(C(F)(F)F)cc1Cl | -9.12
17 | COc1ccc(C)cc1NC(=O)CN1C(=O)c2ccccc2S1(=O)=O | -3.8
18 | CC(C)Cn1c(-c2ccncc2)n[nH]c1=S | 21.9
19 | O=C1C(=O)c2ccccc2C(O)=C1CCCCl | 13.2
20 | O=C(Nc1ccccc1)Nc1ccc(F)c([N+](=O)[O-])c1 | 1.61
21 | CCCCN(C)C(=O)Cn1cnc2sc(C)cc2c1=O | 6.51
22 | CCN(CC)CCN1C(=O)C(=O)/C(=C(/O)c2c(C)[nH]c(C(=O)OC)c2C)C1c1ccc(OC)cc1 (centres unmarked) | -1.24
23 | Brc1ccc(-n2cnc(-c3ccccc3)c2)cc1 | -0.438

Row | Compound | hERG current change (%, negative = inhibition) at 10uM [%]
24 | O=C(CSc1nc2ccccc2c(=O)n1C1CC1)NCc1ccccc1 | -36.1
25 | O=C(/C=C/c1ccco1)OCc1nnc(-c2ccccc2)o1 | -2.09
26 | NC1=NS(=O)(=O)NC1c1ccc(Br)cc1 (centres unmarked) | -2.3
27 | O=C(O)c1cccc(NS(=O)(=O)c2ccc3nnn(O)c3c2)c1 | 7.17
28 | COc1cc(C2Nc3ccccc3C(=O)N2c2ccccc2)ccc1O (centres unmarked) | 2.53
29 | CCOC(=O)C(C)n1nc(-c2ccccc2)c2ccccc2c1=O (centres unmarked) | 15.9
30 | CC(C)c1ccccc1OCCCN1CCCC1.O=C(O)C(=O)O | -33.1
31 | CCOc1ccc(NC(=O)CN(C)C(=O)c2ccc(-c3ccc(C(C)=O)cc3)o2)cc1OCC | -15.1
32 | O=S(=O)(Nc1nc2ccccc2s1)c1cc(F)ccc1F | 7.28
33 | O=C(COC(=O)c1cc(-c2cccnc2)nc2ccccc12)Nc1ccc(F)cc1F | -18.5
34 | CN(CC(=O)NCc1ccco1)C(=O)C1CC(=O)N(c2ccc3c(c2)OCCO3)C1 (centres unmarked) | -0.304
35 | CC(=O)Nc1ccc(S(=O)(=O)NCC(=O)NCCCc2ccccc2)cc1 | 24.8
36 | O=C(CN1CCN(S(=O)(=O)c2ccc(Cl)cc2)CC1)NCC1(N2CCOCC2)CCCCC1 | -39.3
37 | Cc1ccccc1-c1ccc(=O)n(CC(=O)Nc2ccc(C(=O)N3CCCC3)cc2)n1 | 7.48
38 | N#C/C(=C\c1ccc(-c2ccccc2)o1)C(=O)Nn1cnnc1 | 1.7
39 | O=C(CC1C(=O)NCCN1C(=O)c1ccc([N+](=O)[O-])cc1)Nc1ccc(F)cc1 (centres unmarked) | -21.8
40 | CCOC(=O)c1ccc(N2C(=O)CC(N(C)CCc3ccc(OC)c(OC)c3)C2=O)cc1 (centres unmarked) | -4.58
41 | COc1ccc(-c2cc(C(F)(F)F)nc(SCC(=O)NCc3cccs3)n2)cc1OC | -3.84
42 | O=C1CN(C(=O)c2cc3ccccc3oc2=O)C(c2ccccc2)c2cc(F)ccc2N1 (centres unmarked) | -33.9
43 | O=C(NCCc1ccccc1)c1ccc(CS(=O)Cc2ccc(Cl)cc2)o1 (centres unmarked) | -58.8
44 | O=S(=O)(Nc1nc2c(s1)CCCC2)c1ccc(F)cc1 | -21.1
45 | O=C(Cc1ccc([N+](=O)[O-])cc1)N/N=C/c1ccco1 | -15.3
46 | COCCCNC(=O)/C=C/c1ccc(Cl)cc1 | 2.18

Row | Compound | hERG current change (%, negative = inhibition) at 10uM [%]
47 | CC(C)(C#CCN1CCCCC1)OCCOC(c1ccccc1)c1ccccc1.Cl | -21.3
48 | Cc1cc(C(=O)OCC(=O)NCCC(C)C)c2ccccc2n1 | 3.81
49 | Cc1ccc(C2(C(F)(F)F)NC(=O)N3CCN=C3S2)cc1 (centres unmarked) | -39.3
50 | Cc1ccc(NC(=O)C23CCC(C)(C(=O)[C@H]2Br)C3(C)C)cc1 (some centres unmarked) | 8.95
51 | c1ccc(-n2ncc3c2ncn2nnnc32)cc1 | 5.03
52 | S=C(Nc1ccccc1Cl)N(CCCN1CCOCC1)Cc1ccco1 | 0.554
53 | COc1ccc(S(=O)(=O)NC2CC3CCC2C3)cc1Cl (centres unmarked) | -10.1
54 | CC(C)OC(=O)c1c(NC(=O)Cn2cnc([N+](=O)[O-])n2)sc2c1CCCC2 | 12
55 | Cc1ccc(S(=O)(=O)N(C)S(=O)(=O)c2ccc(C#N)cc2)cc1 | -27.4
56 | CCOC(=O)COn1c(=O)c(C)[n+]([O-])c2ccccc21 | 9.57
57 | Cc1cc(NC(=O)Nc2cc(F)ccc2F)no1 | 17.7
58 | CCN1CCN(C(c2cccs2)C(C)NC(=S)NC2CCCCC2)CC1 (centres unmarked) | -60.8
59 | O=C(CS(=O)(=O)c1ccccc1)Nc1ccc(Br)cn1 | -19.8
60 | COCCn1c(N)c(C(=O)NCC2CCCO2)c2nc3ccccc3nc21 (centres unmarked) | -7.66
61 | Fc1ccc(C[n+]2csc3ccccc32)cc1.[Br-] | 17.6
62 | S=C1NCN(Cc2ccco2)CN1Cc1ccco1 | 10.4
63 | c1ccc(-c2cc(-c3nnc4sc(-c5ccccn5)nn34)[nH]n2)cc1 | 1.59
64 | COc1cc(-c2nnc(SCC(=O)c3cc(C)n(CC4CCCO4)c3C)o2)cc(OC)c1OC (centres unmarked) | -2.38
65 | O=C(C[n+]1ccccc1)N/N=C/c1ccccc1Cl.[Cl-] | 12.9
66 | CCn1c(NC(=O)c2ccc(COc3ccc(C)cc3[N+](=O)[O-])o2)nc2ccccc21 | -1.65
67 | COc1ccc(C(N)=S)c(OC)c1 | 2.88
68 | CC(C)(C)C(=O)Nc1ccc2c(c1)-c1cc(NC(=O)C(C)(C)C)ccc1C2 | 16.9
69 | CC(OC(=O)c1cc(O)c2ccccc2c1O)C(=O)Nc1ccc(C(N)=O)cc1 (centres unmarked) | 6.31

Row | Compound | hERG current change (%, negative = inhibition) at 10uM [%]
70 | CCc1nnc(NC(=O)CCC(=O)N2CCCC(O)C2)s1 (centres unmarked) | 16.9
71 | O=c1c2ccccc2nnn1CSc1nnc(-c2cccs2)n1Cc1ccccc1 | -62.6
72 | CCOC(=O)c1[nH]c2cc3c(cc2c1NC(=O)CN1CCc2ccccc2C1)OCO3 | -0.934
73 | Cc1c(C(=O)NC2CCN(Cc3ccccc3)C2)oc2c(Cl)cccc12 (centres unmarked) | -71.8
74 | Cc1ccccc1NC(=O)Cc1nnc(SCC(=O)N2CCOCC2)n1C | 0.542
75 | CC(=O)N1CCN(C(=O)CCN(c2ccccc2)S(=O)(=O)c2ccc(C)cc2)CC1 | -28.5
76 | COc1ccc(/C=C/C(=O)NC(=S)N2CCCCC2)cc1OC | 18.5
77 | CC(C)(C)C(=O)NC1CC2CCCC(C1)N2C(=O)Nc1ccccc1Cl (centres unmarked) | 25.1
78 | O=C(O)c1ccccc1SCc1cn2cc(Cl)ccc2n1 | 24.4
79 | CCN(CC(=O)Nc1c(F)cccc1F)C(=O)CCOc1ccccc1 | 5.44
80 | CCOc1ccccc1C(=O)Nc1ccc(C(=O)c2ccccc2)cc1 | 14.7
81 | COc1cccc2cc(-c3n[nH]c(=S)n3C)oc12 | 11.6
82 | COc1cccc(N2C(=O)CC(N3CCc4ccccc43)C2=O)c1 (centres unmarked) | 13.5
83 | CN1C(=O)NC(NC(=O)c2ccncc2)(C(F)(F)F)C1=O (centres unmarked) | 22
84 | CC(C)C(=O)Nc1cc(-c2nc3ncccc3o2)ccc1Cl | 10.3
85 | Cc1cc(C)c(-n2nnnc2SCC(=O)c2cccs2)c(C)c1 | 16.4
86 | Cc1ccc(NC(=O)Cn2c(O)c(N=NC(=O)c3cc4ccccc4cc3O)c3ccccc32)cc1 | 5.36
87 | CCOC(=O)c1cc(-c2ccc(Cl)cc2)nc2c1c(=O)[nH]c(=O)n2CCOC | -28.3
88 | CC(=O)c1ccc(N2CCN(C(=O)c3ccc4c(=O)n(-c5ccccc5)c(=O)[nH]c4c3)CC2)cc1 | 7.56
89 | C/C(=N\NC(=S)NCCc1ccccc1)c1ccc(Cl)cc1Cl | 4.41
